Sequences with one replicate were seen in a single cluster, so their values are uncertain.

This data set relates to ATP. Put plainly: switch fluorescence ratio, 500 uM ATP over buffer (Cy3 cluster intensity, sum of 5 cycles each) (fold (ratio)); higher = stronger signal-on switching upon ATP binding; sequences stand for … in TCGTCGGCAGCGTCAGATGTGTATAAGAGACAGTTTTTTTTTTTTTTTTTTTTTTTTT…TC. The note with it: aptamer strand: ATP DNA aptamer (quencher-CACCTGGGGGAGTATTGCGGAGGAAGG + anchor), 100 nM annealed; ATP concentration: 500 uM; one replicate. Put shortly:
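Exposure to 500 uM ATP lasted 15 min at 22 °C before imaging, and a selection-buffer image was taken beforehand, for Cy3-labelled switching-strand clusters on a modified Illumina MiSeq flow-cell annealed to 100 nM quencher-labelled ATP aptamer. Five buffer/ATP cycles were run with NaOH stripping and re-annealing between them. The fluorescence ratio per cluster is summed target-cycle over summed buffer-cycle Cy3 intensity, averaged per switch-domain sequence. Clusters outside 100-1000 RFU were excluded.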

In the case of GGGTGCTCCC, the switch fluorescence ratio came to 0.999.

In the case of GCTAGCAT, the switch fluorescence ratio was found to be 1.07.

TCTTTGCGGT: the switch fluorescence ratio was 0.999.

Turning to GACTATGCAG, the switch fluorescence ratio is 1.07.

Regarding TATCCCATGG, the switch fluorescence ratio was found to be 1.03.

As for TTACGCTTCC, the switch fluorescence ratio turned out to be 2.15.

With TTTGGGCTAA, the switch fluorescence ratio amounted to 0.951.

As for GGTGACAAGA, the switch fluorescence ratio is 1.02.

As to ACCAGCCAAC, the switch fluorescence ratio was 1.15.

Regarding CTTTCCAAAT, the switch fluorescence ratio worked out at 1.02.

Regarding AGTGGAGGTC, the switch fluorescence ratio was 1.05.

For GTTGCCAGGA, the switch fluorescence ratio was found to be 1.03.

CCCAGACAGG: the switch fluorescence ratio worked out at 1.13.

Regarding CACAGTTGCG, the switch fluorescence ratio amounted to 0.999.

As to ATCGTATGT, the switch fluorescence ratio was 1.04.

As for ATATAGGCAA, the switch fluorescence ratio was determined as 1.13.

With ATTAGATA, the switch fluorescence ratio came out at 0.989.

Take TATATTATCC: the switch fluorescence ratio was 0.99.

For the sequence CCCAATGGCT, the switch fluorescence ratio came to 1.13.

TTTTACATTA: the switch fluorescence ratio was found to be 1.01.

On to CTGGATTCCC, for which the switch fluorescence ratio was found to be 1.03.

For CAAAGGATTG, the switch fluorescence ratio is 1.01.

As for CAGGGGCTAG, the switch fluorescence ratio was found to be 0.97.

Regarding GGGGGACTCG, the switch fluorescence ratio was 0.95.

As for GCTTAGTCCG, the switch fluorescence ratio was 1.07.

As to CAAAGAAGAT, the switch fluorescence ratio is 0.984.

For the sequence AGCGAATTGA, the switch fluorescence ratio stood at 1.03.

On to ACATAACCTT, for which the switch fluorescence ratio amounted to 1.73.

As for TATACATCAT, the switch fluorescence ratio was determined as 1.04.

Regarding ACTCACCTCG, the switch fluorescence ratio stood at 1.28.

Take ACCGGGGGTT: the switch fluorescence ratio was found to be 1.06.

TGAATTTGGC: the switch fluorescence ratio amounted to 0.946.

Turning to CTTTTTTTCA, the switch fluorescence ratio was 1.06.

For the sequence TCTCAGCTAG, the switch fluorescence ratio stood at 1.11.

Consider TAGAGTCAGT, for which the switch fluorescence ratio was 1.

Regarding CAGGTAATTC, the switch fluorescence ratio came to 1.05.

As for GAGCGCCGT, the switch fluorescence ratio turned out to be 0.955.

Turning to AGGTTTTAAA, the switch fluorescence ratio was found to be 0.984.

With CTTGCGGAC, the switch fluorescence ratio was 1.41.

AAGTGGCACG: the switch fluorescence ratio is 0.991.

Regarding GATGAATAGA, the switch fluorescence ratio was 0.993.

In the case of GTTAAACGG, the switch fluorescence ratio came out at 1.03.

For the sequence CTAAGGGCTG, the switch fluorescence ratio came to 1.01.

Turning to CAAGGCTCGG, the switch fluorescence ratio is 1.06.

GGCCGGCCAT: the switch fluorescence ratio turned out to be 0.978.

As for AAATGGCTTT, the switch fluorescence ratio is 0.998.

For the sequence GAGGGTGGG, the switch fluorescence ratio was found to be 0.956.

GCGTTACGTA: the switch fluorescence ratio worked out at 1.05.

AGTTAGCGTT: the switch fluorescence ratio was found to be 0.964.

With TAGGAGATCG, the switch fluorescence ratio is 0.96.

Turning to GGTCAGGCTT, the switch fluorescence ratio was determined as 0.954.

Turning to CTTGGGGTTG, the switch fluorescence ratio was determined as 0.981.

Take TATGAAGTTT: the switch fluorescence ratio came out at 1.

Turning to GCTGGGTTCC, the switch fluorescence ratio is 1.03.

As for CAGAGGAACC, the switch fluorescence ratio was found to be 1.02.

With TTTGTCACCA, the switch fluorescence ratio was found to be 1.02.

Take GGGCCCAGGT: the switch fluorescence ratio was determined as 1.24.

For the sequence TTTGTGTGAA, the switch fluorescence ratio is 1.05.

Turning to GACTCTGGGG, the switch fluorescence ratio was 1.02.

For TCGGCATCT, the switch fluorescence ratio came to 0.984.

Consider TTTGATTAGA, for which the switch fluorescence ratio was found to be 1.02.

Turning to ATTCCTTCGG, the switch fluorescence ratio came out at 1.03.

For the sequence TCTGGATGAC, the switch fluorescence ratio is 1.06.

Consider ATCATGGGT, for which the switch fluorescence ratio is 0.962.

Turning to TATGTCTGTT, the switch fluorescence ratio amounted to 1.01.

For the sequence GCAGTCGCCC, the switch fluorescence ratio amounted to 0.965.

Consider AACGGAGAGT, for which the switch fluorescence ratio worked out at 1.

On to CGCTAATAAG, for which the switch fluorescence ratio amounted to 1.18.

For CTCAACAGAC, the switch fluorescence ratio is 1.88.

Consider TGGAAGACTA, for which the switch fluorescence ratio was determined as 0.992.

For AGGATGGGTT, the switch fluorescence ratio was 0.998.

As for CATCTAGGTG, the switch fluorescence ratio worked out at 1.78.

On to CGTCAAGAAG, for which the switch fluorescence ratio was 0.983.

With ATTTAGCTT, the switch fluorescence ratio stood at 1.04.

Turning to CCTTAGAGTA, the switch fluorescence ratio amounted to 1.01.

Take GTGCTTGGAC: the switch fluorescence ratio was 1.02.

For GGCATAAAGC, the switch fluorescence ratio is 1.01.

On to CCGGCGAGGT, for which the switch fluorescence ratio came to 1.03.

As to AGCCATCCG, the switch fluorescence ratio worked out at 1.01.

For the sequence TGCTAGGTCT, the switch fluorescence ratio amounted to 0.979.

With GTGGGTATCA, the switch fluorescence ratio came to 1.07.

Consider GAGTTGTCAG, for which the switch fluorescence ratio was found to be 0.992.

For the sequence TTGACGGGGT, the switch fluorescence ratio came out at 1.03.

As to CTGATAATAG, the switch fluorescence ratio amounted to 1.05.

Turning to TAGTTCGGCT, the switch fluorescence ratio was found to be 0.915.

Take AAAGCGGGG: the switch fluorescence ratio turned out to be 0.988.

ACCTTCCAGG: the switch fluorescence ratio amounted to 1.17.

Turning to GATTCGGAGA, the switch fluorescence ratio came out at 1.1.

For the sequence TTAGACTGTG, the switch fluorescence ratio was determined as 1.04.

As to TAATCTGGTG, the switch fluorescence ratio was found to be 1.05.

On to CGCTGAACCC, for which the switch fluorescence ratio was 1.14.

Regarding ATTGCCGGCG, the switch fluorescence ratio is 0.96.

TCTGTGCTTG: the switch fluorescence ratio was 1.02.

For the sequence AGTTGCGATA, the switch fluorescence ratio was 0.986.

With GCCTGGTCTA, the switch fluorescence ratio worked out at 0.982.

On to ACTTTGCGGG, for which the switch fluorescence ratio is 1.01.

In the case of CAGCCCACGG, the switch fluorescence ratio was 1.11.

For ACGAGATACT, the switch fluorescence ratio is 1.55.

Turning to AGGCTGCTAG, the switch fluorescence ratio stood at 0.994.

As for GACGTGGCCT, the switch fluorescence ratio is 1.03.

Regarding TGACGTGAGG, the switch fluorescence ratio came out at 1.02.

CGCCTGCCTT: the switch fluorescence ratio was found to be 1.03.

CGTAGTAACG: the switch fluorescence ratio is 0.979.

Take CGAACAATGA: the switch fluorescence ratio amounted to 1.18.

For the sequence GGGCATCCAC, the switch fluorescence ratio came out at 1.05.

As for ATAAACTAGC, the switch fluorescence ratio stood at 1.07.

For AACGATAAGG, the switch fluorescence ratio worked out at 1.04.

GCGTGTGACC: the switch fluorescence ratio worked out at 1.05.

Take CTCTGGCCTA: the switch fluorescence ratio stood at 1.02.

On to GACAAGAAAA, for which the switch fluorescence ratio was found to be 0.976.

Consider GGAAGGCCAT, for which the switch fluorescence ratio is 1.07.

Turning to TGACACGACT, the switch fluorescence ratio turned out to be 1.03.

In the case of GCTGATGTT, the switch fluorescence ratio came to 0.978.

Turning to CATTGATAAT, the switch fluorescence ratio was found to be 0.974.

AGGTCTGGGA: the switch fluorescence ratio is 1.

ACAGGCTGCT: the switch fluorescence ratio was determined as 1.

As to GGGACCAGTG, the switch fluorescence ratio was 1.05.

On to CATACGCAGC, for which the switch fluorescence ratio was determined as 4.63.

On to GTGAACGT, for which the switch fluorescence ratio was 1.02.

For GACCGTACAT, the switch fluorescence ratio worked out at 1.41.

Values taken from the supplement of paper PMC10126150.
